According to paper PMC4336329 (PLoS ONE, 2015):
Out of some 310,000 compounds screened, about 14,000 (4.5%) showed an effect of 50% or more. Effects have a minus sign here. The list shows a part of the results.

What follows are compounds tested against human ether-à-go-go-related gene (hERG) potassium channel (human, UniProt Q12809) (assay: primary screen, population patch clamp on CHO cells stably expressing hERG).
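Note: peak tail current of the secondary pulse compared with the same well before compound.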

Sequence of human ether-à-go-go-related gene (hERG) potassium channel (Q12809 whole entry, looked up): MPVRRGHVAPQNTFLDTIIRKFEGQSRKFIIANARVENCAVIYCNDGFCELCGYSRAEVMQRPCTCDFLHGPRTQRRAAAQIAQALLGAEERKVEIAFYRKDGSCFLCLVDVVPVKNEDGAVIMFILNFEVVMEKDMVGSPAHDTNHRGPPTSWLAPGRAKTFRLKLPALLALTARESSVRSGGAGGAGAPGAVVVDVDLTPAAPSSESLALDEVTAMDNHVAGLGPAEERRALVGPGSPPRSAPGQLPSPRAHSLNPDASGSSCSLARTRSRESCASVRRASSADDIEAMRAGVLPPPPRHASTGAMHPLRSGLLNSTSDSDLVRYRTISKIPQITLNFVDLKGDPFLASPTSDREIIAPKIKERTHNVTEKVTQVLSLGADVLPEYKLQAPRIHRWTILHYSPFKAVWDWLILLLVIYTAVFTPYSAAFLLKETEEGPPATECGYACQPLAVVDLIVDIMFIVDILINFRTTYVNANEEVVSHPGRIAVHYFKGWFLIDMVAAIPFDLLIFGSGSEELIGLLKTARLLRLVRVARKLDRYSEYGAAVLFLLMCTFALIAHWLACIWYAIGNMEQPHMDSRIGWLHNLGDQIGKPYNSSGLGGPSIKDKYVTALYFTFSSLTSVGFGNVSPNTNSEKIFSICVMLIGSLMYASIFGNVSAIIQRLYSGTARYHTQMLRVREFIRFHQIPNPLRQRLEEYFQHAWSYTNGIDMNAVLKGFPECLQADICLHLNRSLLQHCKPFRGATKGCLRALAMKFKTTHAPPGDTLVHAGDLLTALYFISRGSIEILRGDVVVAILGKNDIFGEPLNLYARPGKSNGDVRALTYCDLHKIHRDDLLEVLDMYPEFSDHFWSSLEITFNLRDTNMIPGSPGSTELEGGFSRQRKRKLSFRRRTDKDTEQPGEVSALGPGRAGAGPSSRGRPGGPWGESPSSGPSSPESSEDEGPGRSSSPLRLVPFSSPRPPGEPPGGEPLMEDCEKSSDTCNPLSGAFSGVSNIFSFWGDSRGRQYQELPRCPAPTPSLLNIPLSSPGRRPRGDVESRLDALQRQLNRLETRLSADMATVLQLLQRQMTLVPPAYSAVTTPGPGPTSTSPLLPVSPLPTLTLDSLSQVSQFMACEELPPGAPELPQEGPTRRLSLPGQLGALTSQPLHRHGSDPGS

Structure (SMILES) | hERG current change (%, negative = inhibition) at 10uM [%]
O=C(O)c1cccc(S(=O)(=O)NCc2cccs2)c1 | 4.57
O=C(Oc1ccc2ccccc2c1Cl)N1CCCCCC1 | 18.9
COC1=C(Nc2ccccc2OC)C(=O)c2ccccc2C1=O | 0.0125
COc1ccc(C(NC(=O)CC(C)C)NC(=O)CC(C)C)cc1OC | -4.3
COc1ccc(C(=O)Cn2nnc(-c3cccs3)n2)cc1 | -10.9
O=C(Nc1cccc(-c2csc(Nc3cccc(C(F)(F)F)c3)n2)c1)c1ccccc1 | 0.347
Cc1cccc(C(=O)N[C@H](C(=O)Nc2ccc(C)c(S(=O)(=O)N(C)C)c2)C(C)C)c1 | 44.2
COc1ccc(/C=N\NC(=S)SCN2C(=O)C3CCC(C)(C2=O)C3(C)C)cc1 (centres unmarked) | 20.1
CCOC(=O)N(NC(=O)C(O)(CC(C)C)CC(C)C)c1ccccc1 | 6.22
O=C(Cn1c(=O)oc2ccccc21)Nc1ccc(F)cc1 | 9.33
CCN(CC)CCNc1ncnc2c1sc1nc(N3CCOCC3)c3c(c12)CC(C)(C)SC3 | -71.1
CC(=O)Nc1ccc(S(=O)(=O)N2CCN(Cc3nc4sc(C)c(C)c4c(=O)[nH]3)CC2)cc1 | -5.44
COc1ccc(S(=O)(=O)Nc2nc3ccccc3s2)cc1 | 9.99
S=c1[nH]nc(Cc2c[nH]c3ccccc23)o1 | 9.56
CC(C)CCn1nnnc1C(c1ccc(N(C)C)cc1)N1CCN(C(=O)c2ccco2)CC1 (centres unmarked) | -45.3
CN(CC#CCN1CCCC1)C(=O)c1cccc(Cl)c1 | 6.8
O=C(c1cc(-c2ccccc2Cl)nc2ccccc12)N1CCC1 | -12.4
O=C(/C=C/Nc1ccc(F)cc1)c1ccc(Br)cc1 | 15.1
COc1ccc(P(=O)(COc2ccc([N+](=O)[O-])cc2)c2ccc(OC)cc2)cc1 | -71

Structure (SMILES) | hERG current change (%, negative = inhibition) at 10uM [%]
CCOc1ccc(-c2noc(CCC(=O)NC3CCCC3)n2)cc1OC | 8.47
Cc1[nH]nc2c1C(CCc1ccccc1)C(C#N)=C(N)O2 (centres unmarked) | -15.2
Cc1ccc(C(=O)N/N=C2\SCC(=O)N2c2cc(C)ccc2C)cc1 | 8.16
COC(=O)c1ccc(NC(=O)NCCCl)cc1 | 18.8
COc1cccc(N2CCN(C(=O)CCc3nnc4ccc(N5CCOCC5)nn34)CC2)c1 | -7.05
Cc1ccc(NC(=O)CS(=O)CC(=O)NCCCc2ccccc2)cc1Cl (centres unmarked) | 4.17
O=c1/c(=C/c2ccc([N+](=O)[O-])cc2)sc2n1CCCN=2 | -15
CCOc1ccc2[nH]c(C)cc(=O)c2c1 | -3.13
O=C(/C=C/c1ccco1)Nc1ccc(CN2CCOCC2)cc1 | -31.3
COc1ccc(N2CC(C(=O)N3CCN(c4ccccc4)CC3)CC2=O)cc1 (centres unmarked) | -41.6
Cc1c(C(=O)O)[nH]c2c1C(=O)CC(c1ccccc1)C2 (centres unmarked) | 13
Cc1ccc(NC(=S)N(CCC(C)C)C(C)c2ccncc2)c(Cl)c1 (centres unmarked) | -15.7
CC(=O)c1ccc(OCCCC(=O)N2CCN(S(=O)(=O)c3ccc(C(C)C)cc3)CC2)cc1 | -10.5
COc1ccc(C#Cc2c(-c3ccc(OC)cc3)oc3ccc(-c4ccc5c(c4)OCO5)cc23)cc1 | 0.687
COC(=O)Cn1c(=NC(=O)c2ccc(S(=O)(=O)N3CCOCC3)cc2)sc2cc(S(N)(=O)=O)ccc21 | 9.18
COC(=O)c1sc(-c2ccc(C(C)(C)C)cc2)cc1NC(=O)CCC(=O)O | 12.5
CC(C)Cn1nc(NC(=O)C(C)(C)C)c2cc3ccccc3nc21 | -6.24
COc1ccc(-c2csc(N(CCCN(C)C)C(=O)c3ccc(C)cc3)n2)cc1.Cl | -68.2
CCOC(=O)c1cnc2c(C(F)(F)F)cccc2c1N1CCOCC1 | -26.7

Structure (SMILES) | hERG current change (%, negative = inhibition) at 10uM [%]
O=C(COC(=O)C1CCN(S(=O)(=O)c2cccc3cccnc23)CC1)c1ccc(F)cc1 | 3.79
COc1ccccc1NC(=O)CN1C(=O)NC2(CCCc3ccccc32)C1=O (centres unmarked) | 1.14
O=C(c1cccc(S(=O)(=O)N2CCCCCC2)c1)N1CCN(c2ccccc2)CC1 | -68.8
Cc1cccc(CCNC(=O)Cn2ncc3c([nH]c4ccc(C)cc43)c2=O)c1 | 21.2
Cc1cc(C)c2oc(C(=O)Nc3nnc(C(C)C)s3)cc(=O)c2c1 | 10.4
Cc1ccc(C(=O)OCC(=O)Nc2sc3c(c2C#N)CCC3)cc1 | 17.8
S=C(NCCc1ccccc1)NN=C1CCCCCC1 | 6.14
CCn1c(=O)[nH]c(=O)c2c(N)c(C(=O)c3ccccc3OC)sc21 | -15.2
CSc1sc(-c2nnc(SCC(=O)Nc3ccccc3)n2C)c2c1C=CCC2 | -2.35
Cn1c2ccccc2c2nnc(SCC(=O)Nc3cccc(O)c3)nc21 | -45.6
COC(=O)c1ccccc1NC(=O)c1ccc(NS(C)(=O)=O)cc1 | -36.1
N/C(=N\OC(=O)c1cccc(C(F)(F)F)c1)c1cnccn1 | 16.7
Cc1ccc(CNC(=O)c2cnccn2)cc1 | -11.5
CCNS(=O)(=O)c1ccc(NC(=O)Nc2cccc(C(F)(F)F)c2)cc1 | -1.07
O=C(NCc1ccccc1)c1onc(CSc2ccccn2)c1C(=O)NCc1ccccc1 | 4.95
COc1cccc2c3c(c(C)nc12)CC(C)O3 (centres unmarked) | -21.9
O=C(CNC(=O)c1cccs1)N/N=C/c1ccc(Cl)cc1 | 16.1
COc1cccc(CNc2nnnn2C)c1OC | 18.9
